Assay [1] deals with T1, NINJ1-C (79th-152th amino acids, lacking N-termini), Flag-tagged (UniProt Q92982).
T1 sequence: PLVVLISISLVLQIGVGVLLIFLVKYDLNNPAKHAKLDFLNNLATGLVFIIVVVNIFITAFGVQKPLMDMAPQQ
Nature of the assay: co-IP; HEK293T cells co-transfected with Flag-tagged NINJ1 (full length or truncation) and HA-tagged ANXA2; precipitated by anti-Flag affinity gel, Western blotting for ANXA2 and HA. For orientation: In western blotting, separated proteins are transferred to a membrane and probed.

Sequences of proteins named here, by UniProt entry; tags and fusion partners are left off. Residues count along the entry.
UniProt O00206, residues 24-839: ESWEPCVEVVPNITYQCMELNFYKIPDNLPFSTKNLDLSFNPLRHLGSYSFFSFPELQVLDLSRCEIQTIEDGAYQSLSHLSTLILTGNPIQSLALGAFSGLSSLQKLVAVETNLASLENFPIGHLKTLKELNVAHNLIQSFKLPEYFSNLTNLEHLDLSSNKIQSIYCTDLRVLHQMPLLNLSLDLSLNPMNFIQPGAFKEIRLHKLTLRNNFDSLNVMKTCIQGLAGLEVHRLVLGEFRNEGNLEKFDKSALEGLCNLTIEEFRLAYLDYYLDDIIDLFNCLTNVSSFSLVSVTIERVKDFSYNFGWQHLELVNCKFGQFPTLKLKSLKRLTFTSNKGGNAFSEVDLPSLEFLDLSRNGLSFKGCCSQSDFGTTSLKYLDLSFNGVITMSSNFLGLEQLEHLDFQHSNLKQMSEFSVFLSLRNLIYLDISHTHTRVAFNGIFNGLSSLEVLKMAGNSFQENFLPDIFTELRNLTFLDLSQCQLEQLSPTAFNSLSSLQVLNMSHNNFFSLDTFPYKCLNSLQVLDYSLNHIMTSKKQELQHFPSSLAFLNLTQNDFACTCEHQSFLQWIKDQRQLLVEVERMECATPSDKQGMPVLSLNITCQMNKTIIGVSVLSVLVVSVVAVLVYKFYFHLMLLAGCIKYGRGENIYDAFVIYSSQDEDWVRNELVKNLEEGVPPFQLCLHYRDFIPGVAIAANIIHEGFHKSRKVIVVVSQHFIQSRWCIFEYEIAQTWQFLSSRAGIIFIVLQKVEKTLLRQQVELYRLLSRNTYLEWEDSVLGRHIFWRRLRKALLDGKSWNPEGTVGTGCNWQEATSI
UniProt P07355: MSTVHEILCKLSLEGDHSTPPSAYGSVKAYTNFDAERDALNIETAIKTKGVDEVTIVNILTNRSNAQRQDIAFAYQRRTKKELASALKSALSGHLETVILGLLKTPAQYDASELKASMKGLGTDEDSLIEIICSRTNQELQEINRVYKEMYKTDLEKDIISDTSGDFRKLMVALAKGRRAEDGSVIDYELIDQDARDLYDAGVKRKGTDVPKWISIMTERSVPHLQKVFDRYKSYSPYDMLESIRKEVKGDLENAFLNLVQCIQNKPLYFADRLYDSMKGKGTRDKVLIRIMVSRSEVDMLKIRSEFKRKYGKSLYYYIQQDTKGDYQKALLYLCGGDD

Assay [2] concerns the target T2, Flag-tagged NINJ1 (nerve injury-induced protein 1), wild type, full length (UniProt Q92982).
T2 sequence: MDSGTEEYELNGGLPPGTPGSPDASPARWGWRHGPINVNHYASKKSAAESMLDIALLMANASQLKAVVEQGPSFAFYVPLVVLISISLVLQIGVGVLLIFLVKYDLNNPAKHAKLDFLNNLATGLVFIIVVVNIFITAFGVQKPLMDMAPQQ
The assay is described as above.

Assay [3] has as its target T3, NINJ1-N (1st-137th amino acids, lacking C-termini), Flag-tagged (UniProt Q92982).
T3 sequence: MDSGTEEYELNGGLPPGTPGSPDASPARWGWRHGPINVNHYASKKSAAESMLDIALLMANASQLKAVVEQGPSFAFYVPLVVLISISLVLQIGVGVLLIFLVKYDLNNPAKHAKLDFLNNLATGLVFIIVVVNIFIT
Described as above.

Assay [4] has as its target TLR4 (Toll-like receptor 4) (UniProt O00206). Description: co-IP; co-IP of TLR4 and ANXA2 (Figure S9A); cells and constructs not shown.
Assay [5] shares this target. Nature of the assay: co-IP; HEK293T cells co-expressing ANXA2 and TLR4 with or without NINJ1; ANXA2 or TLR4 immunoprecipitated from cell lysates, Western blotting.

Results are given in words; binding and its absence hold for the method and conditions named. Binding seen in cells or lysates may run through a third protein. Some binding calls cover weakened binding; strength is not graded here. For some assays here: Where a sequence is shown, tags or fusion partners need not be part of it.

For the substance “HA-tagged ANXA2 (Annexin A2) (from UniProt P07355 1-339)”, the binding result was “binds” in assay [1]; “binds” in assay [2]; “no binding” in assay [3]; “binds” in assay [4]; “binds” in assay [5].

The values are drawn from PMC11336960.
